Reference: PubChem BioAssay AID588855 (National Center for Advancing Translational Sciences (NCATS), 2011)
The campaign covered roughly 410,000 compounds. About 5,000 (1.2%) were called active. Inconclusive results, whose numbers are uncertain, are shown with a selection of clear calls. Calls follow the shape of the dose curve; as a rule, active = well fitted inhibition curve with a large enough effect; inconclusive = small, poorly fitted or top-dose-only effect; inactive = no such curve, though single readings can be large or run the other way. A potency beside an inconclusive call is a rough fit, not a confirmed value.

Experiment: qHTS for Inhibitors of TGF-b; also: nearly all actives have a fitted effect of over 65% in size
Conditions: HepG2 CAGA-GFP TGF-b/SMAD3 reporter, GFP fluorescence, 18 h, TGF-beta stimulated, 500 pg/mL final; series mostly up to 46.1 µM
Outline: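 HEPG2 CAGA-GFP reporter cells (1000/well, DMEM with 1% FBS) received compounds, then recombinant TGF-beta at 500 pg/mL final for 18 hours at 37 degrees C. Per-cell GFP summed per well was normalised to unstimulated and stimulated DMSO controls before curve fitting.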
Potency is read from the fitted curve at half-maximal effect; tags tell the direction and shape of the fitted curve.

Q: For `CCOC(=O)c1ccc(N2C(=O)c3n[nH]c(C)c3C2c2ccc(C(C)C)cc2)cc1` (stereo not drawn), which Potency is on record?
A: Its Potency is inconclusive: 5.62 µM [inhibitor, single point].

Q: For `CC(=O)c1ccc(N(C(=O)CS(=O)CC(=O)Nc2ccc(F)cc2)C(C(=O)NC2CCCCC2)c2cccs2)cc1` (stereo not drawn), which Potency is on record?
A: Its Potency is “inactive”.

Q: For `CC(C)c1nn2c(=O)cc(COC(=O)c3ccc(NC(=O)c4ccccc4Cl)cc3)nc2s1`, which Potency is on record?
A: The Potency was inconclusive: 17.8 µM [inhibitor, single point].

Q: For `Cc1nc(SCC(=O)N2CCN(c3ccccc3)CC2)n[nH]1`, which Potency is on record?
A: The Potency was “inactive”.

Q: For `COc1cc(CNc2ccc(N3CCOCC3)cc2)cc(Br)c1OC`, which Potency is on record?
A: The Potency was inconclusive: 12.6 µM [inhibitor, partial curve].

Q: With `Cc1c(N)c(C(C)(C)C)cc(C(C)(C)C)c1[N+](=O)[O-]` as the compound, how does the Potency read?
A: Its Potency is inconclusive: 35.5 µM [inhibitor, single point].

Q: Which Potency does the source give for `Cc1ccc(C)c(CN2C(=O)c3ccccc3Sc3ccc(C(=O)NCCCOC(C)C)cc32)c1` here?
A: The Potency was inconclusive: 1.78 µM [inhibitor, full curve, poor fit].

Q: For `N#CC[C@H](Cc1ccccc1)N1CCN(Cc2ccccc2)CCC1=O`, which Potency is on record?
A: Its Potency is inconclusive: 5.62 µM [inhibitor, single point].

Q: For `NC(N)=N/N=C/c1ccc(OCc2ccccc2Cl)cc1`, which Potency is on record?
A: The Potency was inconclusive: 35.5 µM [inhibitor, single point].

Q: Which Potency does the source give for `CC(=O)Nc1cc(-c2ccccc2N(C)C)cn2c(-c3ccc(F)c(Cl)c3)cnc12` here?
A: Its Potency is inconclusive: 17.8 µM [inhibitor, single point].

Q: Which Potency does the source give for `Cc1ccc(NC(=O)Nc2cccnc2)cc1Cl` here?
A: The Potency was “inactive”.

Q: For `COc1cccc(CN2CCN(C(=S)NCc3ccc(Cl)cc3)CC2)c1`, which Potency is on record?
A: Its Potency is inconclusive: 11.2 µM [inhibitor, partial curve, poor fit].

Q: For `Cc1cccc(NS(=O)(=O)c2nnc(NC(=O)C3CCCCC3)s2)c1`, which Potency is on record?
A: The Potency was inconclusive: 7.94 µM [inhibitor, partial curve].

Q: With `S=c1[nH]nc(Cc2cccs2)n1-c1cccc2ccccc12` as the compound, how does the Potency read?
A: The Potency was inconclusive: 0.112 µM [inhibitor, full curve, poor fit].

Q: For `COc1ccccc1NC(=S)NNC(=O)c1ccccc1Br`, which Potency is on record?
A: Its Potency is “inactive”.

Q: Which Potency does the source give for `O=C(COc1cccnc1[N+](=O)[O-])Nc1c(Cl)cccc1Cl` here?
A: Its Potency is “inactive”.

Q: With `NC(=O)c1cccc(Nc2nc(C(N)Cc3ccc(C(F)(F)F)cc3)cs2)n1` (stereo not drawn) as the compound, how does the Potency read?
A: Its Potency is inconclusive: 35.5 µM [inhibitor, single point].

Q: With `O=C(/C=C/c1cccc(C(F)(F)F)c1)OCC(=O)N1CCN(c2ccccc2)CC1` as the compound, how does the Potency read?
A: The Potency was “inactive”.

Q: Which Potency does the source give for `NC(=O)[C@H]1CC2(CC(c3cccc(NC(=O)CC(c4ccccc4)c4ccccc4)c3)=NO2)CN1C(=O)CC(c1ccccc1)c1ccccc1` (stereo partly drawn) here?
A: Its Potency is inconclusive: 35.5 µM [inhibitor, single point].

Q: Which Potency does the source give for `Cc1nc(CN(C)c2ncnc3ccc(-c4ccc5c(c4)OCO5)cc23)cs1` here?
A: Its Potency is inconclusive: 15.8 µM [inhibitor, single point].

Q: Which Potency does the source give for `O=Cc1cn(CCOc2ccc(F)cc2)c2ccccc12` here?
A: The Potency was active: 3.98 µM.

Q: With `O=C(Nc1ccc(F)cc1)C1CCN(c2ncnc3c2nc2n3CCCCC2)CC1` as the compound, how does the Potency read?
A: Its Potency is inconclusive: 3.16 µM [inhibitor, partial curve, poor fit].

Q: Which Potency does the source give for `O=C(N/N=C/C(Br)=C/c1ccccc1)c1ccncc1` here?
A: Its Potency is inconclusive: 25.1 µM [inhibitor, single point].

Q: With `Cc1ccccc1C(=O)NCc1ccc2c(c1)CCN2C(=O)c1ccccc1` as the compound, how does the Potency read?
A: Its Potency is inconclusive: 3.98 µM [inhibitor, full curve, poor fit].

Q: For `CCn1c(=O)c2sccc2n2c(CCCC(=O)N3CCN(c4ccccc4OC)CC3)nnc12`, which Potency is on record?
A: Its Potency is inconclusive: 3.98 µM [inhibitor, partial curve, poor fit].

Q: With `CCOC(=O)N1CCC(NC(=O)c2cnn(-c3cccc(C)c3)c2C2CCN(C(=O)OC(C)(C)C)CC2)CC1` as the compound, how does the Potency read?
A: The Potency was “inactive”.

Q: Which Potency does the source give for `Cc1ccc(C(=O)c2ccccc2C(=O)OCC(=O)Nc2cccc([N+](=O)[O-])c2)cc1` here?
A: The Potency was inconclusive: 25.1 µM [inhibitor, single point].

Q: With `C[C@@H]1CCCCO[C@H](CN(C)C(=O)Cc2ccccc2)[C@H](C)CN([C@@H](C)CO)C(=O)c2cc(NC(=O)Nc3ccc(F)cc3)ccc2O1` as the compound, how does the Potency read?
A: The Potency was inconclusive: 35.5 µM [inhibitor, single point].

Q: For `Clc1ccc(CN2CCc3nc(Nc4ccc5c(c4)OCCO5)ncc3C2)cc1`, which Potency is on record?
A: The Potency was inconclusive: 12.6 µM [inhibitor, single point].

Q: For `CCOc1ccccc1CN(CCc1ccc2c(c1)OCO2)Cc1cc(OC)c(OC)cc1OC`, which Potency is on record?
A: The Potency was inconclusive: 35.5 µM [inhibitor, single point].

Q: For `COc1ccc(C)cc1NC(=O)c1ccccc1NS(=O)(=O)c1ccc(Cl)s1`, which Potency is on record?
A: Its Potency is active: 5.01 µM.

Q: For `O=C(NC(=S)Nc1ccc(F)c([N+](=O)[O-])c1)c1ccccc1F`, which Potency is on record?
A: The Potency was inconclusive: 11.2 µM [inhibitor, single point].

Q: Which Potency does the source give for `c1ccc2c(-c3c[nH]c4ccccc34)c3ccccc3nc2c1` here?
A: The Potency was inconclusive: 35.5 µM [inhibitor, single point].

Q: For `CC(C)NC(=O)c1nn(C)c2c1CS(=O)(=O)c1ccccc1-2`, which Potency is on record?
A: The Potency was “inactive”.

Q: With `S=C(Nc1ccc(Br)cc1)NC1CCCC1` as the compound, how does the Potency read?
A: Its Potency is inconclusive: 22.4 µM [inhibitor, single point].

Q: For `CC(NC(=O)CN1CCN(Cc2cccc(F)c2)CC1)c1ccccc1` (stereo not drawn), which Potency is on record?
A: The Potency was inconclusive: 2.24 µM [inhibitor, partial curve, poor fit].

Q: For `S=C(Nc1ccc(Oc2ccccc2)cc1)N1CCOCC1`, which Potency is on record?
A: The Potency was “inactive”.

Q: With `CCOc1ccc2c(c1)C(N(CCN1CCOCC1)C(=S)Nc1ccccc1OC)CC(C)(C)O2` (stereo not drawn) as the compound, how does the Potency read?
A: The Potency was “inactive”.

Q: Which Potency does the source give for `Cc1ccc(S(=O)(=O)N2[C@@H](c3ccccc3F)C(C(=O)O)=CC[C@H]2c2ccc(Cl)c(Cl)c2)cc1` here?
A: The Potency was inconclusive: 25.1 µM [inhibitor, single point].

Q: For `Cc1ccc(S(=O)(=O)c2cn(CC(=O)Nc3ccc4c(c3)OCO4)c3ccc(F)cc3c2=O)cc1`, which Potency is on record?
A: The Potency was inconclusive: 5.62 µM [inhibitor, single point].

Q: For `CC(C)C1NC2(C(=O)c3ccccc3C2=O)C2C(=O)N(c3ccc(F)cc3)C(=O)C12` (stereo not drawn), which Potency is on record?
A: Its Potency is “inactive”.

Q: For `O=C(COC(=O)C1(c2ccc(F)cc2)CCCC1)N1CCc2ccccc21`, which Potency is on record?
A: The Potency was inconclusive: 22.4 µM [inhibitor, partial curve, poor fit].

Q: With `Fc1ccc(-c2nc3ccc(Cl)cn3c2Cc2cccc(F)c2)cc1` as the compound, how does the Potency read?
A: Its Potency is inconclusive: 20 µM [inhibitor, single point].

Q: For `COc1ccc(S(=O)(=O)NC(=O)C2(C)CCN2C(=O)Cc2cc(C)cc(C)c2)cc1` (stereo not drawn), which Potency is on record?
A: The Potency was “inactive”.

Q: For `CC(=O)Oc1ccc(C(=O)Nc2cccc(C(=O)c3cccc(NC(=O)c4ccc(OC(C)=O)cc4)c3)c2)cc1`, which Potency is on record?
A: The Potency was inconclusive: 0.1 µM [inhibitor, full curve, poor fit].

Q: Which Potency does the source give for `O=C(N/N=C/C1C(c2ccccc2)C1(Cl)Cl)c1cccc(Cl)c1` (stereo not drawn) here?
A: Its Potency is inconclusive: 35.5 µM [inhibitor, single point].

Q: With `O=C(NCc1ccc(F)c(F)c1)C1CCC(=O)N(CCc2ccccc2)C1` (stereo not drawn) as the compound, how does the Potency read?
A: Its Potency is inconclusive: 35.5 µM [inhibitor, single point].

Q: For `CCc1cccc(NC(=O)c2ccc3c(=O)n4nc(Nc5ccccc5OC)sc4nc3c2)c1`, which Potency is on record?
A: The Potency was inconclusive: 10 µM [inhibitor, partial curve].

Q: With `COc1ccc(OC)c(NC(=O)CCc2c(C)nc3c(-c4ccccc4)c(C)nn3c2C)c1` as the compound, how does the Potency read?
A: The Potency was inconclusive: 15.8 µM [inhibitor, partial curve, poor fit].

Q: With `COc1ccccc1NC1=C(Cl)C(=O)N(C2CCCCC2)C1=O` as the compound, how does the Potency read?
A: The Potency was inconclusive: 20 µM [inhibitor, partial curve, poor fit].

Q: Which Potency does the source give for `Cc1cc(C)n(-c2nc(NCCCN(C)C)c3c4c(sc3n2)CCCC4)n1` here?
A: The Potency was inconclusive: 20 µM [inhibitor, partial curve, poor fit].

Q: For `Cc1ccccc1C(=O)N1CCN(C(c2ccccc2)c2ccccc2)CC1`, which Potency is on record?
A: Its Potency is inconclusive: 17.8 µM [inhibitor, single point].

Q: For `CC(=O)N1CCC(C(=O)OCc2ccc(Cl)cc2)(c2ccccc2)CC1`, which Potency is on record?
A: Its Potency is inconclusive: 17.8 µM [inhibitor, single point].

Q: Which Potency does the source give for `O=C(CCS(=O)(=O)c1ccccc1)N(CCCN1CCOCC1)c1nc2ccccc2s1` here?
A: Its Potency is inconclusive: 2.82 µM [inhibitor, partial curve].

Q: With `Cc1nc2ccc(NC(=S)N3CCN(c4ccccn4)CC3)cc2nc1C` as the compound, how does the Potency read?
A: Its Potency is inconclusive: 0.112 µM [inhibitor, full curve, poor fit].

Q: With `Cc1cc(C)n(-c2nc3cc(Cl)c(Cl)cc3nc2Nc2c(C)cccc2C)n1` as the compound, how does the Potency read?
A: The Potency was “inactive”.

Q: With `Clc1ccc(NN(Cc2ccncc2)c2ccc(Cl)cc2)cc1` as the compound, how does the Potency read?
A: The Potency was inconclusive: 35.5 µM [inhibitor, single point].

Q: For `COc1cccc(-c2cnc(C(O)c3ccc(SC)cc3)[nH]2)c1` (stereo not drawn), which Potency is on record?
A: Its Potency is “inactive”.

Q: For `Cc1ccc(OC(C)C(=O)Nc2ccc(S(=O)(=O)Nc3nccs3)cc2)cc1` (stereo not drawn), which Potency is on record?
A: Its Potency is inconclusive: 25.1 µM [inhibitor, single point].

Q: With `Cc1ccccc1C1=NC(C(F)(F)F)(C(F)(F)F)c2c(n(C)c(=O)n(C)c2=O)N1` as the compound, how does the Potency read?
A: Its Potency is “inactive”.

Q: With `COc1cc(C=C2Cc3ccccc3C2=O)cc(OC)c1OC` as the compound, how does the Potency read?
A: Its Potency is “inactive”.

Q: Which Potency does the source give for `COc1ccc(CNC(=O)C(=O)NCC(c2cccnc2)N2CCN(c3ccccc3F)CC2)cc1` (stereo not drawn) here?
A: Its Potency is inconclusive: 10 µM [inhibitor, partial curve, poor fit].

Q: With `CN(C)S(=O)(=O)Oc1cccc(C(=O)Nc2ccc(Cl)cc2)c1` as the compound, how does the Potency read?
A: The Potency was inconclusive: 0.501 µM [inhibitor, full curve, poor fit].
